Measurements: patent publication US20260258106A1 (BEIJING NEOX BIOTECH, published 2026)

Columns and labels:
[1] = biological target: T1, human IL-21R (ACRO, Catalog: ILR-H5226) (human, UniProt Q9HBE5 20-232, limits assumed); experiment: BLI (Octet R8), IL-21-Fc on Protein A sensor, IL-21R in solution
T1 construct: Bought soluble protein used as analyte in BLI; also called IL-21R protein; IL-21 receptor
Protocol: The affinity of mutant IL-21 to human IL-21R (ACRO, Catalog: ILR-H5226) was determined by label-free biolayer interferometry (Octet® R8, BLI) as follows:
2: The IL-21R protein was diluted with buffer (10 mM PBS+0.02% tween-20+0.1% BSA, pH 7.4) from the initial concentration of 1000 nM to 3.9 nM in a 4-fold gradient to yield a total of 5 concentrations: 1000 nM, 250 nM, 62.5 nM, 15.6 nM, and 3.9 nM, respectively.
4: The IL-21 mutant-Fc protein was loaded onto the Protein A sensor. The loading time was 90s. The mutant-Fc protein was then eluted and then equilibrated for 30 s. The mutant-Fe protein was then combined with 4 different concentrations of IL-21R protein. The binding time was 120 s. Finally, the bound IL-21R protein was eluted with a buffer. The dissociation time was 180 s.

[2] = biological target: IL-21R expressed on the surface of HuT78 cells (UniProt Q9HBE5 20-538, limits assumed); experiment: cell-based or functional assay

B1: m103-Fc (Fc fusion)
chain: QGQDRHMIRMRQLIDIVDQLKNYVNDLVPEFLPAPEDVETNCEWSAFSCFQKAQLKSANTGNNERIINVSIKKLKRKPEGGGSEGGGSLTCPSCDSYEKKPPKEFLERFKSLLQKMIHQHLSSRTHGSEDS[human IgG1 Fc with changes not shown]
- Kd [1]: 5.08 nM
- koff [1]: 0.00355 s⁻¹
- kon [1]: 699000 M⁻¹ s⁻¹
- pSTAT3 activation(EC50, nM) [2]: 0.0394 nM
